Experimental data taken from PubChem BioAssay (NCATS).
Inconclusive means that the source gave no clear call. Such entries were picked first, then a sample of the others. For some of these results: No potency is given beside an inconclusive call; the fits are too rough. Calls of active or inactive are those of the source. Calls follow the shape of the dose curve; as a rule, active = well fitted curve in the direction sought with a large enough effect; inconclusive = small, poorly fitted or top-dose-only effect, or another doubt; inactive = no such curve, though single readings can be large; an effect the other way counts as inactive or inconclusive.

Experiments:
[1] = qHTS of pediatric cancer cell lines to identify multiple opportunities for drug repurposing: Primary screen for SJ-GBM2 cells (AID 1347091); details: SJ-GBM2 viability, CellTiter-Glo luminescence, 48 h; series mostly up to 46 µM; also: potency is read from the fitted curve at half-maximal effect;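 as to activity change, negative = cytotoxic: plate controls were DMSO neutral control for no effect and bortezomib for full effect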
In short: (§1)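 Cell viability, CellTiter-Glo luminescence; 500-1,000 cells/well, 8- or 11-point titration, 48 h compound exposure at 37 degrees C, 5% CO2. Controls: DMSO neutral, bortezomib 2.3 µM final as positive.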

[2] = qHTS of pediatric cancer cell lines to identify multiple opportunities for drug repurposing: Primary screen for A673 cells (AID 1347092); details: A673 Ewing sarcoma viability, CellTiter-Glo ATP luminescence, 48 h; activity change, negative = cytotoxic: at 46 µM (top of the series); also: nearly all actives have a fitted effect of over 45% in size; also: potency is read from the fitted curve at half-maximal effect; as to activity change, negative = cytotoxic: % is scaled to controls: 0 for no effect and ±100 for the full control effect
In short: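 48 h compound exposure, A673, 500-1,000 cells/well, 37 degrees C/5% CO2. MIPE: 11-point, 0.78 nM-46 µM; NPC: 8-point, 0.59 nM-46 µM (final). Readout CellTiter-Glo luminescence after 15 min RT.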

[3] = qHTS of pediatric cancer cell lines to identify multiple opportunities for drug repurposing: Primary screen for SK-N-MC cells (AID 1347093); details: SK-N-MC viability, CellTiter-Glo luminescence, 48 h; activity change, negative = cytotoxic: at 46 µM (top of the series);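 also: plate controls were DMSO neutral control for no effect and bortezomib for full effect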
In short: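 Metabolically active cells were quantified by ATP-dependent luminescence (CellTiter-Glo, 15 min at room temperature) following 48 h treatment. Cells had been plated at 500-1,000 per well and settled for 5 h beforehand.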

[4] = qHTS of pediatric cancer cell lines to identify multiple opportunities for drug repurposing: Primary screen for U-2 OS cells (AID 1347096); details: U-2 OS viability, CellTiter-Glo luminescence, 48 h; series mostly up to 46 µM; also: nearly all actives have a fitted effect of over 50% in size; also: potency is read from the fitted curve at half-maximal effect;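 as to activity change, negative = cytotoxic: plate controls were DMSO wells for no effect and bortezomib positive control wells for full effect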
In short: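 Cells (500-1,000/well) rested 5 h, then received compounds for 48 h; metabolically active cells were measured by CellTiter-Glo luminescence. Final concentrations spanned up to 46 µM (MIPE, 11-point) or 0.59 nM-46 µM (NPC, 8-point) in primary screens, 11-point in follow-ups.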

[5] = qHTS of pediatric cancer cell lines to identify multiple opportunities for drug repurposing: Primary screen for BT-37 cells (AID 1347094); details: BT-37 viability, CellTiter-Glo luminescence, 48 h; series mostly up to 57.3 µM; also: potency is read from the fitted curve at half-maximal effect
In short: (§2)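 Readout: CellTiter-Glo luminescence, 48 h treatment. Controls DMSO (neutral) and bortezomib 2.3 µM final (positive). Potency and efficacy taken from primary-screen concentration-response curves.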

[6] = qHTS of pediatric cancer cell lines to identify multiple opportunities for drug repurposing: Primary screen for NB-EBc1 cells (AID 1347095); details: NB-EBc1 neuroblastoma viability, CellTiter-Glo luminescence, 48 h; series mostly up to 46 µM; also: potency is read from the fitted curve at half-maximal effect
In short: as §2

[7] = qHTS of pediatric cancer cell lines to identify multiple opportunities for drug repurposing: Primary screen for DAOY cells (AID 1347090); details: DAOY medulloblastoma viability, CellTiter-Glo luminescence, 48 h; series mostly up to 46 µM; also: potency is read from the fitted curve at half-maximal effect; nearly all actives have a fitted effect of over 55% in size
In short: as §1
Tags tell the direction and shape of the fitted curve.

CC(C)N(CC[C@H](c1ccccc1)c1cc(CO)ccc1O)C(C)C
Potency [1]: inactive | Potency [2]: inactive | activity change, negative = cytotoxic [3]: inconclusive: -32.9% [cytotoxic] | Potency [4]: inactive

COc1ccc(C2CNC(=O)C2)cc1OC1CCCC1 (configuration not stated)
Potency [1]: inactive | Potency [2]: inactive | Potency [3]: inactive

CC(CN(C)C)CN1c2ccccc2CCc2ccccc21 (configuration not stated)
Potency [1]: inconclusive [cytotoxic, single point] | Potency [2]: inconclusive [cytotoxic, partial curve, poor fit] | Potency [3]: inactive | Potency [5]: inconclusive [cytotoxic, partial curve, poor fit]

CN1CCC(COc2cnc(-c3cccc(Cn4nc(-c5cccc(C#N)c5)ccc4=O)c3)nc2)CC1
Potency [1]: active: 8.3 nM | Potency [2]: active: 148 nM | Potency [6]: inconclusive [cytotoxic, full curve, poor fit]

CCCCN1C[C@H](O)[C@@H](O)[C@H](O)[C@H]1CO
Potency [1]: inactive

C[C@H]1O[C@@H](O[C@H]2CC[C@@]3(C)[C@H](CC[C@@H]4[C@@H]3C[C@@H](O)[C@]3(C)[C@@H](C5=CC(=O)OC5)CC[C@]43O)C2)C[C@H](O)[C@@H]1O[C@H]1C[C@H](O)[C@H](O[C@H]2C[C@H](O)[C@H](O[C@@H]3O[C@H](CO)[C@@H](O)[C@H](O)[C@H]3O)[C@@H](C)O2)[C@@H](C)O1
Potency [7]: active: 266 nM | Potency [5]: active: 123 nM | Potency [4]: inconclusive [cytotoxic, full curve]

Cn1c(=O)c(-c2c(Cl)cccc2Cl)cc2cnc(Nc3cccc(C(=O)O)c3)nc21
Potency [1]: active: 526 nM | Potency [2]: inconclusive [cytotoxic, full curve] | Potency [6]: active: 1320 nM | Potency [4]: inconclusive [cytotoxic, full curve, poor fit]
